The whole screen tested about 420,000 compounds, of which about 50,000 (12%) were called active. Inconclusive results, whose numbers are uncertain, are shown with a selection of clear calls. Calls follow the shape of the dose curve; as a rule, active = well fitted inhibition curve with a large enough effect; inconclusive = small, poorly fitted or top-dose-only effect; inactive = flat fitted curve, though single readings scatter. No potency is given beside an inconclusive call; the fits are too rough.
Assay: qHTS for Inhibitors of human tyrosyl-DNA phosphodiesterase 1 (TDP1): qHTS in cells in presence of CPT; also: nearly all actives have a fitted effect of over 55% in size
Settings: chicken DT40 Tdp1-/-;hTDP1 cells + 20 nM CPT, ATP luminescence, 48 h; activity change, negative = growth inhibition: at 46.2 µM (top of the series) unless noted
Outline: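 Chicken DT40 Tdp1-/- cells stably complemented with human TDP1 were seeded at 400 cells/well in medium containing 20 nM camptothecin, exposed to pin-transferred compounds, and grown at 37 °C for at least 48 hr. Viability was read as ATP luminescence.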
% is scaled to controls: 0 for no effect and ±100 for the full control effect; potency is read from the fitted curve at half-maximal effect; tags tell the direction and shape of the fitted curve.

| Structure (SMILES) | activity change, negative = growth inhibition | Potency |
| --- | --- | --- |
| CSc1nsc(N/N=C/c2ccc3c(c2)OCO3)c1C#N | inactive: -7.96% | – |
| O=C(Nc1ccc(Br)cc1)c1csc(-c2ccncc2)n1 | inactive: -29.8% | – |
| CS(=O)(=O)N(Cc1ccccc1)c1ccc(C(=O)Nc2cccc(Cl)c2)cc1 | – | inconclusive [inhibitor, single point] |
| CC(C)NC(=O)c1csc(COCCO)n1 | inactive: -18.9% | – |
| COc1ccc(C)cc1CN(C)c1ccc(S(=O)(=O)N2CCN(C)CC2)cn1 | – | inconclusive [inhibitor, single point] |
| CNC(=O)c1ccsc1NC(=O)c1ccc(S(=O)(=O)N2CCCc3ccccc32)cc1 | – | active: 20.6 µM |
| O=C(Nc1ccc(S(=O)(=O)Nc2ncccn2)cc1)c1ccc(N2CCCC2=O)cc1 | inactive: -4.49% | – |
| O=C(Nc1cccc(C(F)(F)F)c1)Nc1nnc(N2CCCCCC2)s1 | – | inconclusive [inhibitor, partial curve] |
| COCCCNC(=O)CN1C(=O)c2cccnc2Sc2ccccc21 | inactive: -7.14% | – |
| COc1cc(-c2ccc(Cl)cn2)cc2c1OCCN(S(=O)(=O)C[C@]13CC[C@H](CC1=O)C3(C)C)C2 | inactive: 13.2% [at 9.04 µM] | – |
| COc1cc2sc3ccc(C#Cc4ccc(N)cc4)cc3c(=O)c2cc1OC | inactive: -22.8% | – |
| COc1cccc(-c2nc(CS(=O)(=O)CC(=O)N3CCN(c4ccccn4)CC3)c(C)o2)c1 | – | inconclusive [inhibitor, single point] |
| Cc1nonc1OCCn1c([N+](=O)[O-])cnc1C | inactive: 4.33% | – |
| CC1COc2c3ccccc3nn21 (stereo not given) | inactive: -4.95% | – |
| COC(=O)Nc1sc2c(c1C(=O)NCc1ccco1)CCCC2 | inactive: -3.53% | – |
| COc1cc2cnc(-c3ccccc3)c(-c3cc(OC)c(OC)c(OC)c3)c2cc1OC | – | inconclusive [inhibitor, single point] |
| CC(C)Oc1ccc(OCCn2c(S(=O)(=O)O)nc3c(N)ncnc32)cc1 | inactive: 2.01% | – |
| NS(=O)(=O)c1ccc(NC(=S)N2CCN(Cc3ccc4c(c3)OCO4)CC2)cc1 | – | inconclusive [inhibitor, single point] |
| COc1ccccc1N1CCN(C(=O)c2cc(-c3ccc(C)c(F)c3)on2)CC1 | – | inconclusive [inhibitor, single point] |
| NCCSC1CC(=O)N(c2ccc(Cl)c(Cl)c2)C1=O (stereo not given) | inactive: -21.3% | – |
| COc1ccc(CN2CCC(C(=O)c3ccc(Cl)cc3)CC2)cc1 | – | active: 23.1 µM |
| CCN(CC(=O)Nc1ccc2c(c1)OCCO2)Cc1nc2cc(Cl)ccc2c(=O)[nH]1 | – | inconclusive [inhibitor, single point] |
| O=C(CSc1nnc(-c2cccs2)n1Cc1ccco1)c1ccc2c(c1)OCO2 | – | inconclusive [inhibitor, single point] |
| O=C(Nc1ccccc1Cl)ON=C1c2ccccc2-c2ccccc21 | inconclusive: -38.4% [inhibitor] | – |
| Cn1c(=O)n(C)c2cc(S(=O)(=O)NCCc3ccccc3)ccc21 | – | active: 23.1 µM |

| Structure (SMILES) | activity change, negative = growth inhibition | Potency |
| --- | --- | --- |
| Clc1cccc(Cc2c(-c3ccccc3)nc3c4ccccc4ccn23)c1 | – | inconclusive [inhibitor, partial curve] |
| Cn1c(=O)c2[nH]c(CCCCCc3nc4ccccc4[nH]3)nc2n(C)c1=O | inactive: -11.4% | – |
| CCC(CO)NCc1sccc1C (stereo not given) | inactive: 6.93% | – |
| COc1ccc(-c2cc(C(=O)Nc3sc4c(c3C(N)=O)CCCC4)no2)cc1 | – | inconclusive [inhibitor, single point] |
| CN(C)c1ccc(CN(C(=O)C2COc3ccccc3O2)C2CCS(=O)(=O)C2)cc1 (stereo not given) | – | inconclusive [inhibitor, single point] |
| Cc1ccccc1N(CC(=O)NCC1CCCO1)C(=O)CNS(=O)(=O)c1ccc(F)cc1 (stereo not given) | inactive: 1.31% | – |
| CCC(=O)N(CCCN(C)C)c1nc(-c2cc(OC)ccc2OC)cs1 | inactive: -18.4% | – |
| COc1ccc(Oc2ncc3nc(-c4cc(F)cc(F)c4)c(=O)n(C4CC4)c3n2)cc1 | – | inconclusive [inhibitor, single point] |
| COc1ccccc1CNc1nc(C)c(C(C)=O)s1 | – | active: 20.6 µM |
| CCOc1ccccc1C1NC(=O)NC(C)=C1C(=O)OC1CCCC1C (stereo not given) | inactive: -25.6% | – |
| CCOC(=O)C(Cc1ccc(O)c([N+](=O)[O-])c1)N1C(=O)c2ccccc2C1=O (stereo not given) | – | inconclusive [inhibitor, partial curve] |
| COc1cc2oc(=O)cc(-c3ccc(-c4ccc(N(C)C)cc4)cc3)c2c(OC)c1OC | – | inconclusive [inhibitor, partial curve] |
| Cc1ccn2c(NC3CCCCC3)c(C)nc2c1 | – | inconclusive [inhibitor, single point] |
| CCCCN1CC(c2nc3ccccc3n2CCCCOc2cc(C)cc(C)c2)CC1=O (stereo not given) | – | active: 11.6 µM |
| CC1(C(=O)NCc2ccccc2)Cc2c(-c3cccc(C(N)=O)c3)ccnc2O1 (stereo not given) | – | active: 3.26 µM |
| O=C(NNC(=O)c1cc(-c2ccccc2)nc2ccccc12)Nc1cccc(Cl)c1 | – | inconclusive [inhibitor, single point] |
| CC(C)(C)C1CCC(OC(=O)C[N+]2(C)CCCC2)CC1 (stereo not given) | – | active: 4.11 µM |
| Cc1ccc2ccc(C(Nc3cccc(C(F)(F)F)c3)c3cccnc3)c(O)c2n1 (stereo not given) | – | inconclusive [inhibitor, single point] |
| COc1cc(-c2nc3ccccn3c2NCc2ccccc2)ccc1SC1CCCCC1 | – | active: 25.9 µM |
| Cc1ccc(-c2noc(=O)n2CC(=O)c2ccc(Cl)cc2)cc1 | – | inconclusive [inhibitor, single point] |
| Cc1c(NC(=O)C(C)OC(=O)/C=C/c2ccccc2)c(=O)n(-c2ccccc2)n1C (stereo not given) | inactive: 0.565% | – |
| CCCn1c(=O)[nH]c(=O)c2c1nc(-c1ccc3c(c1)OCCO3)n2CCN1CCOCC1 | inactive: -1.02% | – |
| O=C(c1ccc(Cl)c(S(=O)(=O)N2CCCCCC2)c1)N1CCN(c2ccc(O)cc2)CC1 | – | active: 18.4 µM |
| Cn1ccc(=S)c2ccccc21 | – | inconclusive [inhibitor, single point] |
| O=C1c2ccccc2NC(c2ccc([N+](=O)[O-])cc2)N1O (stereo not given) | – | active: 20.6 µM |
